From patent US20240141007A1

Target: PD-1 (UniProt Q15116)
Assay: cell-based or functional assay

Chain of UniProt Q15116 (Q15116 25-288 limits assumed): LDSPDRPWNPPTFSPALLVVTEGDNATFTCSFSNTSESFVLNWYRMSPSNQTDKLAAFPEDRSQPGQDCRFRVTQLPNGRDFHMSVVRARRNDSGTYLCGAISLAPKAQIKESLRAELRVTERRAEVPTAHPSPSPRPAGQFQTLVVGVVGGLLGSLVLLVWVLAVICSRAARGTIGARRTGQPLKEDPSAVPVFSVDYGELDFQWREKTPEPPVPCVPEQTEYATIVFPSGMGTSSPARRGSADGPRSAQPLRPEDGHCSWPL

EC50 (nM), PD-1/PD-L1 Blockade Bioassay: 0.586 nM
B1: CM4 (antibody, not shown: a dimerising Fc or GST)
heavy 1: QVQLVQSGVEVKKPGASVKVSCKASGYTFTNYYMYWVRQAPGQGLEWMGGINPSNGGTNFNEKFKNRVTLTTDSSTTTAYMELKSLQFDDTAVYYCARRDYRFDMGFDYWGQGTTVTVSSASTKGPSVFPLAPSSKSTSGGTAALGCLVKDYFPEPVTVSWNSGALTSGVHTFPAVLQSSGLYSLSSVVTVPSSSLGTQTYICNVNHKPSNTKVDKKVEPKSC[about 150 residues cut from this listing]
heavy 2: QVQLVQSGVEVKKPGASVKVSCKASGYTFTNYYMYWVRQAPGQGLEWMGGINPSNGGTNFNEKFKNRVTLTTDSSTTTAYMELKSLQFDDTAVYYCARRDYRFDMGFDYWGQGTTVTVSSASTKGPSVFPLAPSSKSTSGGTAALGCLVKDYFPEPVTVSWNSGALTSGVHTFPAVLQSSGLYSLSSVVTVPSSSLGTQTYICNVNHKPSNTKVDKKVEPKSC
light: EIVLTQSPATLSLSPGERATLSCRASKGVSTSGYSYLHWYQQKPGQAPRLLIYLASYLESGVPARFSGSGSGTDFTLTISSLEPEDFAVYYCQHSRDLPLTFGGGTKVEIKRTVAAPSVFIFPPSDEQLKSGTASVVCLLNNFYPREAKVQWKVDNALQSGNSQESVTEQDSKDSTYSLSSTLTLSKADYEKHKVYACEVTHQGLSSPVTKSFNRGEC
